Measured values published in paper PMC8166750 (The Journal of Biological Chemistry, 2021).

Assays:
[1] = biological target: T1, zfP2X4^WT (Danio rerio, UniProt F8W463); experiment: ATP concentration-response, perforated patch clamp in HEK293 cells; type: cell-based, zebrafish (Danio rerio)
T1 sequence (F8W463 1-389): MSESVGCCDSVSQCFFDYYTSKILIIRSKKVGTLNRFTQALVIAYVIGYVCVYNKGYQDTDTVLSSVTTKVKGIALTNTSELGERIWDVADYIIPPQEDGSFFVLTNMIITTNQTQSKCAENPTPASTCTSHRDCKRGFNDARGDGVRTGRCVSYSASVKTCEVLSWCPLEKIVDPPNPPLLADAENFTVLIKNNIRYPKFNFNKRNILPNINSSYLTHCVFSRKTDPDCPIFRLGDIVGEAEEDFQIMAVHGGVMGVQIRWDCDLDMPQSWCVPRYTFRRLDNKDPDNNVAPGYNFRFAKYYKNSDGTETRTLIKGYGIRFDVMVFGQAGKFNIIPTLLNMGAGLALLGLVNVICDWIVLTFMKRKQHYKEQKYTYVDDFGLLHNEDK

[2] = biological target: homomeric mammalian P2X6 (Homo sapiens, UniProt O15547); experiment: ATP current in cells expressing homomeric receptor; type: cell-based
[3] = biological target: T2, hP2X7^E121A (Homo sapiens, UniProt Q99572, E121A); experiment: ATP concentration-response, perforated patch clamp in HEK293 cells; type: cell-based
T2 sequence (Q99572 1-595 E121A): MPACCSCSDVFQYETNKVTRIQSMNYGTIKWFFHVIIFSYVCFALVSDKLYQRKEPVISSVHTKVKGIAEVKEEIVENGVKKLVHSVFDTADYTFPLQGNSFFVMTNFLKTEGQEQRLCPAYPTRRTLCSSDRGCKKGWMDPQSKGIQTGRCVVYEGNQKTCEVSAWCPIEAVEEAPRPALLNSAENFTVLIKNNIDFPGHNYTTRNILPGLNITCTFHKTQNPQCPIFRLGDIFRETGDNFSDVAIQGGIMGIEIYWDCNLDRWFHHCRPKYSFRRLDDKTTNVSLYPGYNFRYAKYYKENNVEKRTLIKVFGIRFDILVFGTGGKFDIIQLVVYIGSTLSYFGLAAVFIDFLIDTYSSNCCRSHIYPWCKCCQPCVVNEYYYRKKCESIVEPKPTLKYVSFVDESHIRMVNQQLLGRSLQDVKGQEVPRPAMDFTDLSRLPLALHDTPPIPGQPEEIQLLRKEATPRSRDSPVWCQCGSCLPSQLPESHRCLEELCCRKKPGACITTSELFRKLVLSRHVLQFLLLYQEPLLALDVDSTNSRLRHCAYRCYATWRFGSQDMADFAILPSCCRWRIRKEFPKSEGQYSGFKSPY

[4] = biological target: T3, hP2X2^WT (Homo sapiens, UniProt Q9UBL9); experiment: as above; type: cell-based
T3 sequence (Q9UBL9 1-471): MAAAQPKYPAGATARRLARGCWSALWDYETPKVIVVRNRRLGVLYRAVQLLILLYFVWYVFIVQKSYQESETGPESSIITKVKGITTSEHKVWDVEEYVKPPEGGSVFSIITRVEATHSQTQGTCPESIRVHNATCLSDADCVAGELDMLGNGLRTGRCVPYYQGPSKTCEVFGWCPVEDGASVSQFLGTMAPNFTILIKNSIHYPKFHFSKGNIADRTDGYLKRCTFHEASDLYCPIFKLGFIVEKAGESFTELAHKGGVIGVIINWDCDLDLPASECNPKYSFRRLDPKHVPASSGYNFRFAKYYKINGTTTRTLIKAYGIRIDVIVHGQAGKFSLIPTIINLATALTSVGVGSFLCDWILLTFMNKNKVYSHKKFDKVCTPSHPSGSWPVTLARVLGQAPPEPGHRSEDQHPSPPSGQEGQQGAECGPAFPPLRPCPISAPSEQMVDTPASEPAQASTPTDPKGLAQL

[5] = biological target: T4, hP2X3^E109A (Homo sapiens, UniProt P56373, E109A); experiment: as above; type: cell-based
T4 sequence (P56373 1-397 E109A): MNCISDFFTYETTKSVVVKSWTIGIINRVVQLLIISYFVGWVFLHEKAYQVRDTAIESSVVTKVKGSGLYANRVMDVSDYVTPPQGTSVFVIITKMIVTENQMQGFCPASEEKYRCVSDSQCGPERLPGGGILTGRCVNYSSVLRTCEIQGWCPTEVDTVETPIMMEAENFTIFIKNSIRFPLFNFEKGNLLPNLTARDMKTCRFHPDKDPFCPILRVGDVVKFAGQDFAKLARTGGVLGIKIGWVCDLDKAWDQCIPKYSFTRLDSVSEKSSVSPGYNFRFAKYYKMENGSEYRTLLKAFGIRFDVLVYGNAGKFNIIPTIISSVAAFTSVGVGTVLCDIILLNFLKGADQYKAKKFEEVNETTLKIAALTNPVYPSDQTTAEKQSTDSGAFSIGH

[6] = biological target: T5, AmP2X^E129A (Amblyomma maculatum, UniProt G3MM57, E129A)
T5 sequence (G3MM57 1-383 E129A): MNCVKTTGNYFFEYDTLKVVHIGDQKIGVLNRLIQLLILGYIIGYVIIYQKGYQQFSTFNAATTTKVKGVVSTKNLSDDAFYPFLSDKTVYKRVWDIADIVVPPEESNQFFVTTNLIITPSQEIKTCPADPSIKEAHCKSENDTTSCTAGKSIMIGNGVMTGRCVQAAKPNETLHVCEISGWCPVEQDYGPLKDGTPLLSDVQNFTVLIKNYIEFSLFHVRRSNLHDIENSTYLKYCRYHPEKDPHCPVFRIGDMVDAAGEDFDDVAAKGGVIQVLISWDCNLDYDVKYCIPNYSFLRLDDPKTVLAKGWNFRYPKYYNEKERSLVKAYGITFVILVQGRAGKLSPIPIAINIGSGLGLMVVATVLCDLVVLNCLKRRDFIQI

Sequence of UniProt O15547 (O15547 whole entry): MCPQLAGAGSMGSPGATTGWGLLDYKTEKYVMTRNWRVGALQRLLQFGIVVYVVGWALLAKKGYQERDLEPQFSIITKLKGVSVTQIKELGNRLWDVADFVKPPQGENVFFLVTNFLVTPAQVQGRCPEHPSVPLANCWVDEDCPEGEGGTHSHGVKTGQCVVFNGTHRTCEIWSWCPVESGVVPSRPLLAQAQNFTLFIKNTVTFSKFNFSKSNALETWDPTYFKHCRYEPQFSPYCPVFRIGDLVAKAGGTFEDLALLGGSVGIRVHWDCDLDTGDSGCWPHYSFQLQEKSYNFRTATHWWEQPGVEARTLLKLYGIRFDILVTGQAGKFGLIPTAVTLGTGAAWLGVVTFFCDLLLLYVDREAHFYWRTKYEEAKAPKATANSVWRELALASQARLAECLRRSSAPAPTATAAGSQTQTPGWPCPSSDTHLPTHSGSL

SMILES: Nc1ncnc2c1ncn2[C@@H]1O[C@H](COP(=O)(O)OP(=O)(O)OP(=O)(O)O)[C@@H](O)[C@H]1O [ATP]
- nH (Hill coefficient) of ATP [1]: 0.94 ± 0.16
- EC50 ([1]; EC50 of ATP (concentration yielding half-maximal activation), mean ± SD, n = 3–7): 1430 ± 733 µM
- ATP current [2]: negligible
- EC50 [3]: 360 ± 54.3 µM
- nH (Hill coefficient) of ATP ([3]; hP2X7^E121A): 1.34 ± 0.20
- EC50 [4]: 13.2 ± 1.97 µM
- nH (Hill coefficient) of ATP ([4]; hP2X2^WT): 1.15 ± 0.17
- EC50 [5]: 0.58 ± 0.07 µM
- nH (Hill coefficient) of ATP ([5]; hP2X3^E109A): 1.02 ± 0.18
- nH (Hill coefficient) of ATP [6]: 0.99 ± 0.09
